Measurements published in PubChem BioAssay AID485281 (National Center for Advancing Translational Sciences (NCATS), 2010).
Several values for one entry are separate records, joined by “and”; a condition that tells them apart may be missing. Equal entries are not always repeated. Out of some 350,000 compounds screened, about 260 (0.074%) were called active. This list was built around the results that the source calls inconclusive (neither active nor inactive); the mix of calls is not that of the screen. The call rests on the fitted dose curve; in most records, active means well fitted inhibition curve with a large enough effect; inconclusive means small, poorly fitted or top-dose-only effect; inactive means no such curve, though single readings can be large or run the other way. Where the call is inconclusive, the potency comes from a doubtful curve fit.

What follows are compounds tested against Ferritin light chain (Equus caballus) (UniProt P02791) (assay: qHTS Assay for Identification of Novel General Anesthetics). Details: apoferritin/1-aminoanthracene competitive binding, fluorescence; activity change, negative = displacement: at 77.5 µM (top of the series).
Sequence of UniProt P02791 (P02791 whole entry, looked up): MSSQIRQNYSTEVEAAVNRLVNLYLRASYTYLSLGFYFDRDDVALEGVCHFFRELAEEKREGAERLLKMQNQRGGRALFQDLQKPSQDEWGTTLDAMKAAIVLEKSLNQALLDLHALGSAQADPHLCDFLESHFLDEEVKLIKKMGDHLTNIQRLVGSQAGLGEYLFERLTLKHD
Outline: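 Probe: 1-aminoanthracene (50% saturated, PBS). Protein: horse-spleen apoferritin, 10 uM. Incubation: 10 min, room temperature. Detection: 380 nm excitation, 535 nm emission. Analysis: normalized response, four-parameter Hill.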
Further: nearly all actives have a fitted effect of over 20% in size.
On the % scale 0 is the no-effect control and ±100 the full control effect; potency means the concentration at half of the fitted maximal effect; tags describe the fitted curve by direction and shape.

`NC(=O)NCCC1=CCCCC1` was tested. Which Potency did it give?
The Potency was inconclusive: 31.6 µM [inhibitor, partial curve].

`CCCCn1nc2cc(C(=O)NCC34CC5CC(CC(C5)C3)C4)ccc2c1OC` was tested. Which Potency did it give?
The Potency was inconclusive: 25.1 µM [inhibitor, partial curve].

With `COc1cccc2cc(C(=O)CS(=O)(=O)c3ccc(C(C)(C)C)cc3)c(=O)oc12` as the compound, how does the Potency read?
Its Potency is inconclusive: 3.98 µM [inhibitor, full curve, poor fit].

With `COC(=O)CSc1nnc(SCc2ccccc2)s1` as the compound, how does the Potency read?
The Potency was inconclusive: 22.4 µM [inhibitor, partial curve].

For `NCCc1nnc(SCC(=O)Nc2ccc(Br)cc2)o1`, which activity change, negative = displacement is on record?
The activity change, negative = displacement was inconclusive: -25.8% [inhibitor].

With `Cc1ccc(NC2CCCN(C(=O)C3CCCC3)C2)cc1C` (stereo unspecified) as the compound, how does the Potency read?
Its Potency is inconclusive: 28.2 µM [inhibitor, partial curve].

With `CCc1ccccc1OCc1nnc(N)s1` as the compound, how does the Potency read?
The Potency was inconclusive: 20 µM [inhibitor, partial curve].

How did the “activity change, negative = displacement” value turn out when `CC(C)CCC(C(=O)O)C(C)CC(=O)NC1CCCCC1` (stereo unspecified) was run?
The value was inactive: -0.987%.

How did the Potency turn out when `COc1cccc(C2NC(=O)c3ccccc3O2)c1OCc1ccccc1F` (stereo unspecified) was run?
Its Potency is inconclusive: 22.4 µM [inhibitor, partial curve].

Which Potency does the source give for `CCOC(=O)c1c(OCC)[nH]c2c1cc(O)c1ccccc12` here?
The Potency was inconclusive: 50.1 µM [inhibitor, single point].

Which Potency does the source give for `Cc1cccc(OCC(=O)O/N=C(\N)c2ccccn2)c1` here?
Its Potency is inconclusive: 17.8 µM [inhibitor, partial curve].

For `CCC1CCCCN1C(=O)CSc1nc2ncccc2[nH]1` (stereo unspecified), which “activity change, negative = displacement” value is on record?
The value was inactive: -8.79%.

With `CCOC(=O)c1cnc(-c2ccccc2)nc1N(C)C` as the compound, how does the “activity change, negative = displacement” value read?
The value was inactive: -10.2%.

With `Cc1[nH]c2ccccc2c1C(=O)C(=O)N1c2ccccc2CC1C` (stereo unspecified) as the compound, how does the Potency read?
The Potency was inconclusive: 17.8 µM [inhibitor, partial curve].

For `Cc1ccc(NC(=O)c2cc(S(=O)(=O)NCCC3=CCCCC3)ccc2F)cc1F`, which Potency is on record?
The Potency was inconclusive: 11.2 µM [inhibitor, partial curve] and inconclusive: 4.47 µM [inhibitor, full curve].

`O=C(NCCC(=O)N1CCCC(C(F)(F)F)C1)c1ccccc1Cl` (stereo unspecified) was tested. Which Potency did it give?
The Potency was inconclusive: 35.5 µM [inhibitor, single point].

For `Cc1cc(C)c(COCc2cc(/C=N/O)c(C)cc2C)cc1/C=N/O`, which Potency is on record?
Its Potency is inconclusive: 22.4 µM [inhibitor, partial curve].

For `C/C(=N\NC(=O)c1nn(C)cc1Br)c1cccc(NC(=O)C2CCCC2)c1`, which Potency is on record?
Its Potency is inconclusive: 50.1 µM [inhibitor, partial curve].

`CCCS(=O)(=O)Nc1cc(C(F)(F)F)ccc1OCCOC` was tested. Which Potency did it give?
Its Potency is inconclusive: 20 µM [inhibitor, partial curve].

Which “activity change, negative = displacement” value does the source give for `CCCCC/C=C\C\C=C/C=C/C=C/[C@@H](SC[C@H](N)C(=O)NCC(=O)O)[C@@H](O)CCCC(=O)O` here?
Its value is inactive: 5.29%.

Which Potency does the source give for `CC(=O)c1ccc(OC(=O)CCc2ccccc2)cc1` here?
The Potency was inconclusive: 25.1 µM [inhibitor, partial curve].

Which Potency does the source give for `CCC(=O)NC(=S)Nc1ccc(Cl)cn1` here?
The Potency was inconclusive: 28.2 µM [inhibitor, partial curve].

How did the Potency turn out when `CCOc1ccc(CC(=O)NCc2ccc3c(c2)cc(C)n3C)cc1` was run?
The Potency was inconclusive: 39.8 µM [inhibitor, single point].

`CCc1ccc(C(=O)c2cn(CC(=O)Nc3ccc(F)c(F)c3)c3cc(OC)c(OC)cc3c2=O)cc1` was tested. Which Potency did it give?
Its Potency is inconclusive: 3.55 µM [inhibitor, full curve].

How did the Potency turn out when `Cc1cc([N+](=O)[O-])nn1CC(=O)N1c2ccccc2CC1C` (stereo unspecified) was run?
The Potency was inconclusive: 50.1 µM [inhibitor, single point].

For `O=C(Nc1ccc(Cl)cc1)C1CCCN(S(=O)(=O)c2ccc3[nH]c(=O)ccc3c2)C1` (stereo unspecified), which Potency is on record?
The Potency was inconclusive: 1.41 µM [inhibitor, full curve].

How did the Potency turn out when `CCCSc1nnc(-c2c[nH]c3ccccc23)n1C` was run?
Its Potency is inconclusive: 20 µM [inhibitor, partial curve].

How did the Potency turn out when `COc1ccc(NS(=O)(=O)c2ccc(C(=O)N3CCN(Cc4ccccc4)CC3)cc2)cc1` was run?
The Potency was inconclusive: 31.6 µM [inhibitor, partial curve].

For `NC(=O)c1ccccc1NS(=O)(=O)Cc1ccc(Cl)cc1`, which “activity change, negative = displacement” value is on record?
The value was inactive: -10.3%.

With `Cc1ccc(OCc2cc(C(=O)NCCn3cccn3)no2)cc1C` as the compound, how does the Potency read?
Its Potency is inconclusive: 28.2 µM [inhibitor, partial curve].

How did the Potency turn out when `CCCC1=C(C(=O)OCC)C(c2c(C)nn(-c3ccccc3)c2Cl)C(C#N)=C(N)O1` (stereo unspecified) was run?
The Potency was inconclusive: 20 µM [inhibitor, partial curve].

With `O=C(COC(=O)CN1C(=O)c2ccccc2C1=O)Nc1ncc(Cl)cc1Cl` as the compound, how does the Potency read?
Its Potency is inconclusive: 31.6 µM [inhibitor, partial curve].

With `Cc1cc(C)c(NC(=S)NC(=O)c2c(Cl)c(C)nn2C)c([N+](=O)[O-])c1` as the compound, how does the Potency read?
Its Potency is inconclusive: 56.2 µM [inhibitor, single point].

Which Potency does the source give for `CCc1cccc(NC(=O)Nc2ccc3c(c2)N(C)C(=O)c2ccccc2S3)c1` here?
The Potency was inconclusive: 25.1 µM [inhibitor, partial curve].

For `CCOC(=O)N1CCN=C1SCc1ccc(C(F)(F)F)cc1`, which Potency is on record?
The Potency was inconclusive: 35.5 µM [inhibitor, partial curve].

Which Potency does the source give for `O=C(O)C1CCCCC1C(=O)Nc1cccc(Cl)c1Cl` (stereo unspecified) here?
Its Potency is inconclusive: 28.2 µM [inhibitor, partial curve].

With `Cn1cc(S(=O)(=O)N2CCCCCC2)cc1C(=O)N1CCN(c2ccc(F)cc2)CC1` as the compound, how does the “activity change, negative = displacement” value read?
The value was inactive: -7.65%.

How did the “activity change, negative = displacement” value turn out when `CCCCNc1nc(C)nc2c1nc(-c1ccccc1)n2CC(C)(C)CN(C)C` was run?
Its value is inactive: -10.5%.

With `Cc1cc(C(=O)C(C)OC(=O)C2=NNC(=O)CC2)c(C)n1-c1ccc(OC(F)F)cc1` (stereo unspecified) as the compound, how does the Potency read?
The Potency was inconclusive: 14.1 µM [inhibitor, partial curve].

How did the Potency turn out when `Cc1ccc(C(=O)N2CCC(C)CC2)cc1C` was run?
The Potency was inconclusive: 31.6 µM [inhibitor, single point].

`Cc1nc(SCc2ccc(Cl)c(Cl)c2)ncc1C(=O)O` was tested. Which Potency did it give?
The Potency was inconclusive: 31.6 µM [inhibitor, partial curve].

For `O=[N+]([O-])c1c(NCCCO)cc(N2CCCCCC2)c2nonc12`, which Potency is on record?
Its Potency is inconclusive: 22.4 µM [inhibitor, partial curve].

`COc1ccc(/C=C(/C#N)S(=O)(=O)c2ccc(C)cc2)cc1` was tested. Which Potency did it give?
Its Potency is inconclusive: 39.8 µM [inhibitor, partial curve].

How did the Potency turn out when `O=C(Nc1ccccc1C(=O)O)/C(=C/c1ccc([N+](=O)[O-])cc1)NC(=O)c1ccc(Br)o1` was run?
The Potency was inconclusive: 22.4 µM [inhibitor, partial curve].

With `Cc1ccc(NCc2nnc(SCC(=O)OC3CCCCC3)o2)c(C)c1` as the compound, how does the Potency read?
The Potency was inconclusive: 14.1 µM [inhibitor, partial curve].

Which Potency does the source give for `CCCCn1c(SCn2nnc3ccccc3c2=O)nc2cc(S(N)(=O)=O)ccc21` here?
Its Potency is inconclusive: 12.6 µM [inhibitor, partial curve].

How did the Potency turn out when `O=C(COC(=O)Cc1ccc(Br)cc1)NC12CC3CC(CC(C3)C1)C2` was run?
The Potency was inconclusive: 7.08 µM [inhibitor, full curve].

How did the Potency turn out when `Cc1cc(C)n(-c2ccc(C(=O)Nc3cccc([N+](=O)[O-])c3)cc2)n1` was run?
Its Potency is inconclusive: 31.6 µM [inhibitor, partial curve].

For `Cc1csc(SCC(=O)Nc2sc3c(c2C#N)CCC3)n1`, which Potency is on record?
Its Potency is inconclusive: 28.2 µM [inhibitor, partial curve].

`COCCN=C1NN=C(c2cc(C)n(CC3CCCO3)c2C)CS1` (stereo unspecified) was tested. Which Potency did it give?
Its Potency is inconclusive: 31.6 µM [inhibitor, single point].

How did the Potency turn out when `CC(C)C[C@H](NC(=O)c1nc[nH]c1C(=O)NCc1ccc(CNC(=O)OC(C)(C)C)cc1)C(=O)OC(C)(C)C` was run?
The Potency was inconclusive: 3.55 µM [inhibitor, partial curve].

How did the Potency turn out when `CCC1CCCCN1C(=O)COC(=O)c1cc2ccccc2cc1O` (stereo unspecified) was run?
Its Potency is inconclusive: 20 µM [inhibitor, partial curve].

`Cc1ccccc1-c1noc(C23CC4CC(CC(C4)C2)C3)n1` was tested. Which Potency did it give?
The Potency was inconclusive: 44.7 µM [inhibitor, single point].

For `Cc1cc(-c2nnc(SCC(=O)N3C(C)CCCC3C)o2)no1` (stereo unspecified), which “activity change, negative = displacement” value is on record?
Its value is inactive: -13.9%.

With `Cc1ccc(CNc2oc(-c3ccco3)nc2C#N)cc1` as the compound, how does the “activity change, negative = displacement” value read?
The value was inactive: 6.03%.

Which Potency does the source give for `Cc1ccc(C(=O)N/N=C/c2cc(C)n(-c3ccc(Br)cc3)c2C)cc1[N+](=O)[O-]` here?
The Potency was inconclusive: 10 µM [inhibitor, partial curve].

For `NS(=O)(=O)c1ccc(NC(=O)c2ccc3c(c2)OCO3)cc1`, which “activity change, negative = displacement” value is on record?
Its value is inactive: -2.78%.

How did the “activity change, negative = displacement” value turn out when `CC1CCCN(C(=O)/C(=C/c2ccco2)NC(=O)c2ccccc2)C1` (stereo unspecified) was run?
Its value is inactive: -0.123%.

How did the Potency turn out when `Cc1cccc(Cn2ccn(Cc3ccc(Cl)cc3)c(=O)c2=O)c1` was run?
Its Potency is inconclusive: 5.62 µM [inhibitor, partial curve].

With `Fc1ccc(OCc2nn3c(Cn4nnc5ccccc54)nnc3s2)cc1` as the compound, how does the Potency read?
Its Potency is inconclusive: 20 µM [inhibitor, partial curve].

Which Potency does the source give for `Cc1ccc(C2=NN(C(=O)CNCCO)C(c3cccs3)C2)cc1` (stereo unspecified) here?
The Potency was inconclusive: 22.4 µM [inhibitor, partial curve].

With `CCOc1ccc(CC(=O)Nc2c(C(=O)Nc3ccccc3)oc3ccccc23)cc1OCC` as the compound, how does the Potency read?
The Potency was inconclusive: 11.2 µM [inhibitor, single point].

How did the Potency turn out when `CC(C)(C)C(=O)CC1(O)C(=O)N(Cc2ccc(Cl)cc2)c2ccccc21` (stereo unspecified) was run?
Its Potency is inconclusive: 17.8 µM [inhibitor, partial curve].

How did the “activity change, negative = displacement” value turn out when `COc1ccc(C(=O)O/N=C(\N)c2ccccc2)cc1OC` was run?
The value was inactive: -3.16%.

How did the Potency turn out when `Cc1ccc(/C=N/NC(=O)NC23CC4CC(CC(C4)C2)C3)o1` was run?
Its Potency is inconclusive: 28.2 µM [inhibitor, single point].

How did the “activity change, negative = displacement” value turn out when `Cc1oc2cc3c(C(=O)N4CCCCC4)c(C)oc3cc2c1C(=O)N1CCCCC1` was run?
The value was inactive: -15%.
